According to the supplement of paper PMC12217912:
This is one part of the list. Sequences were assembled here from the parent chain. Values near 0.05 are background.

B1: TEV protease; numbered along this chain (parent)
chain: MGESLFKGPRDYNPISSSICHLTNESDGHTTSLYGIGFGPFIITNKHLFRRNNGTLVVQSLHGVFKVKDTTTLQQHLVDGRDMIIIRMPKDFPPFPQKLKFREPQREERICLVTTNFQTKSMSSMVSDTSCTFPSGDGIFWKHWIQTKDGQCGSPLVSTRDGFIVGIHSASNFTNTNNYFTSVPKNFMELLTNQEAQQWVSGWRLNADSVLWGGHKVFMVKPEEPFQPVKEATQL

Variants of: B1
Assay: raw area under fraction-flipped curve 0-4 h after induction (AUC4h, not background-subtracted), DNA-recorder readout of cleavage of the substrate (dimensionless); higher = more cleavage of the substrate by the protease variant
Conditions: temperature: 34 °C; time window: 0-4 h after rhamnose induction
Protocol: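 In vivo DNA recorder in E. coli TOP10(DE3) ΔrhaA at 34 °C. Each TEVp single-site mutant (parent TEVp 0) is paired with a single-site variant of the 7-mer TEVs (canonical ENLYFQ|S). The substrate sits between flexible linkers in a Bxb1-sfGFP-TEVs-SsrA fusion, so cleavage stabilises Bxb1 and speeds flipping of a recombination array, read by NGS. The value is the raw area under the fraction-flipped curve over 0-4 h after rhamnose induction (AUC4h), with ≥20 reads per time point. It is not background-subtracted; inactive controls average about 0.047.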
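Further: Bxb1 expression induced with 0.2% (w/v) L-rhamnose at OD600 near 0.5, cultures sampled hourly, flipped fraction per protease–substrate barcode pair counted by paired-end Illumina sequencing.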

Variant | area with substrate ECLYFQS | area with substrate EDLYFQS | area with substrate EELYFQS | area with substrate EGLYFQS | area with substrate EHLYFQS | area with substrate EILYFQS | area with substrate ELLYFQS | area with substrate EMLYFQS | area with substrate EPLYFQS | area with substrate EQLYFQS | area with substrate ERLYFQS | area with substrate ESLYFQS | area with substrate ETLYFQS | area with substrate EVLYFQS | area with substrate EWLYFQS | area with substrate EYLYFQS | area with substrate EKLYFQS | area with substrate EFLYFQS
S60M | 0.0938 | 0.139 | 0.126 | 0.119 | 0.0985 | 0.112 | 0.0722 | 0.11 | 0.137 | 0.148 | 0.0973 | 0.102 | 0.126 | 0.0864 | 0.0884 | 0.116 | – | –
I84F | 0.0602 | – | 0.0629 | 0.0545 | – | 0.0404 | 0.0524 | 0.0779 | 0.0693 | 0.0589 | 0.0596 | 0.0658 | – | – | 0.0642 | 0.0845 | 0.059 | –
L99P | 0.114 | 0.129 | 0.139 | 0.0754 | – | 0.0529 | 0.109 | 0.0835 | – | 0.124 | 0.0943 | 0.0963 | 0.124 | 0.0837 | – | 0.101 | 0.0827 | 0.0938
L73T | 0.0693 | 0.0731 | – | 0.0617 | 0.0762 | 0.0731 | – | 0.0864 | – | – | 0.0802 | 0.0578 | – | 0.0563 | – | 0.0805 | 0.0665 | 0.0758
L73S | 0.063 | – | 0.0944 | 0.0368 | – | 0.0561 | – | 0.0608 | 0.0617 | – | 0.0326 | 0.0686 | – | 0.0619 | 0.0554 | – | – | –
L73W | 0.0727 | – | – | – | – | 0.0688 | 0.06 | – | – | – | – | – | – | 0.0392 | – | – | – | –
R109E | 0.0921 | 0.0873 | 0.0527 | – | 0.108 | 0.0779 | 0.0776 | – | – | 0.108 | 0.119 | – | 0.0852 | 0.0969 | 0.122 | – | – | –
Q59M | 0.0986 | 0.139 | 0.113 | 0.123 | – | 0.0975 | 0.141 | – | – | 0.128 | – | 0.0888 | – | 0.0906 | – | 0.0882 | 0.102 | 0.0872
Q59F | 0.101 | 0.132 | – | 0.0893 | 0.0646 | 0.091 | 0.0773 | 0.0794 | 0.0852 | 0.0887 | 0.0942 | 0.0895 | 0.126 | – | 0.0773 | 0.0979 | 0.11 | –
L112E | 0.0605 | – | – | 0.0622 | 0.0578 | 0.0367 | 0.0507 | 0.063 | 0.0517 | 0.0656 | 0.0625 | 0.0647 | 0.233 | 0.0671 | – | 0.0607 | 0.0661 | –
L112R | 0.117 | 0.0974 | 0.0892 | – | – | 0.0819 | – | – | 0.101 | 0.133 | 0.0907 | 0.0924 | – | 0.108 | 0.079 | – | – | –
G54S | 0.0821 | – | 0.0804 | 0.0904 | 0.103 | 0.0866 | 0.0609 | 0.0893 | – | 0.0733 | 0.0418 | 0.0709 | – | 0.0678 | – | 0.106 | 0.082 | –
L61E | 0.0985 | – | 0.113 | – | – | 0.0897 | 0.0834 | 0.142 | 0.137 | 0.111 | 0.0988 | 0.0794 | 0.113 | 0.102 | 0.0872 | 0.0889 | 0.108 | –
P89H | 0.0957 | – | – | – | – | 0.0928 | – | 0.131 | – | 0.0632 | – | – | – | 0.0807 | – | 0.108 | 0.0925 | –
E108D | 0.133 | – | – | – | 0.105 | 0.0868 | 0.0804 | – | – | 0.111 | 0.121 | 0.109 | – | – | – | 0.108 | – | –
